# Measured values as given in the supplement of paper PMC8728848.
# This is one part of the list.
# Assays:
# Experiment in all cases: glycan array binding signal (z-score within array); higher = stronger binding
# Conditions in all cases: glycan notation: IUPAC condensed, linker removed
# [1] = molecular target: Neu5Ac(a2-6)Gal(b1-3)GlcNAc(b1-3)[Gal(b1-4)GlcNAc(b1-6)]Gal(b1-4)Glc
# How it was run: (§1)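 Columns mapping to the same glycan were averaged after glycan names were converted to IUPAC-condensed notation. The data come from 3228 arrays in the Consortium for Functional Glycomics database, limited to those with an available protein sequence. Binding is reported as a within-array Z-score averaged across arrays of one protein sequence and across linkers.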
# [2] = molecular target: Neu5Ac(a2-6)Gal(b1-4)Glc
# How it was run: as §1
# [3] = molecular target: Neu5Ac(a2-6)Gal(b1-4)GlcNAc
# How it was run: as §1
# [4] = molecular target: Neu5Ac(a2-6)Gal(b1-4)GlcNAc(b1-2)Man
# How it was run: as §1
# [5] = molecular target: Neu5Ac(a2-6)Gal(b1-4)GlcNAc(b1-2)Man(a1-3)Man(b1-4)GlcNAc(b1-4)GlcNAc
# How it was run: as §1
# [6] = molecular target: Neu5Ac(a2-6)Gal(b1-4)GlcNAc(b1-2)Man(a1-3)[Gal(b1-4)GlcNAc(b1-2)Man(a1-6)]Man(b1-4)GlcNAc(b1-4)GlcNAc
# How it was run: as §1
# [7] = molecular target: Neu5Ac(a2-6)Gal(b1-4)GlcNAc(b1-2)Man(a1-3)[GlcNAc(b1-2)Man(a1-6)]Man(b1-4)GlcNAc(b1-4)GlcNAc
# How it was run: as §1
# [8] = molecular target: Neu5Ac(a2-6)Gal(b1-4)GlcNAc(b1-2)Man(a1-3)[GlcNAc(b1-4)][Neu5Ac(a2-6)Gal(b1-4)GlcNAc(b1-2)Man(a1-6)]Man(b1-4)GlcNAc(b1-4)GlcNAc
# How it was run: as §1
# [9] = molecular target: Neu5Ac(a2-6)Gal(b1-4)GlcNAc(b1-2)Man(a1-3)[Man(a1-6)]Man(b1-4)GlcNAc(b1-4)GlcNAc
# How it was run: as §1
# [10] = molecular target: Neu5Ac(a2-6)Gal(b1-4)GlcNAc(b1-2)Man(a1-3)[Neu5Ac(a2-3)Gal(b1-4)GlcNAc(b1-2)Man(a1-6)]Man(b1-4)GlcNAc(b1-4)GlcNAc
# How it was run: as §1
# [11] = molecular target: Neu5Ac(a2-6)Gal(b1-4)GlcNAc(b1-2)Man(a1-3)[Neu5Ac(a2-6)Gal(b1-4)GlcNAc(b1-2)Man(a1-6)]Man(b1-4)GlcNAc(b1-4)GlcNAc
# How it was run: as §1
# [12] = molecular target: Neu5Ac(a2-6)Gal(b1-4)GlcNAc(b1-2)Man(a1-3)[Neu5Ac(a2-6)Gal(b1-4)GlcNAc(b1-2)Man(a1-6)]Man(b1-4)GlcNAc(b1-4)[Fuc(a1-6)]GlcNAc
# How it was run: as §1
# [13] = molecular target: Neu5Ac(a2-6)Gal(b1-4)GlcNAc(b1-2)Man(a1-6)Man(b1-4)GlcNAc(b1-4)GlcNAc
# How it was run: as §1
# [14] = molecular target: Neu5Ac(a2-6)Gal(b1-4)GlcNAc(b1-2)Man(a1-6)[Gal(b1-4)GlcNAc(b1-2)Man(a1-3)]Man(b1-4)GlcNAc(b1-4)GlcNAc
# How it was run: as §1
# [15] = molecular target: Neu5Ac(a2-6)Gal(b1-4)GlcNAc(b1-2)Man(a1-6)[GlcNAc(b1-2)Man(a1-3)]Man(b1-4)GlcNAc(b1-4)GlcNAc
# How it was run: as §1
# [16] = molecular target: Neu5Ac(a2-6)Gal(b1-4)GlcNAc(b1-2)Man(a1-6)[Man(a1-3)]Man(b1-4)GlcNAc(b1-4)GlcNAc
# How it was run: as §1
# [17] = molecular target: Neu5Ac(a2-6)Gal(b1-4)GlcNAc(b1-2)[Neu5Ac(a2-6)Gal(b1-4)GlcNAc(b1-4)]Man(a1-3)[GlcNAc(b1-4)][Neu5Ac(a2-6)Gal(b1-4)GlcNAc(b1-2)[Neu5Ac(a2-6)Gal(b1-4)GlcNAc(b1-6)]Man(a1-6)]Man(b1-4)GlcNAc(b1-4)GlcNAc
# How it was run: as §1
# [18] = molecular target: Neu5Ac(a2-6)Gal(b1-4)GlcNAc(b1-2)[Neu5Ac(a2-6)Gal(b1-4)GlcNAc(b1-4)]Man(a1-3)[GlcNAc(b1-4)][Neu5Ac(a2-6)Gal(b1-4)GlcNAc(b1-4)Man(a1-6)]Man(b1-4)GlcNAc(b1-4)GlcNAc
# How it was run: as §1
# [19] = molecular target: Neu5Ac(a2-6)Gal(b1-4)GlcNAc(b1-2)[Neu5Ac(a2-6)Gal(b1-4)GlcNAc(b1-6)]Man(a1-6)[Neu5Ac(a2-6)Gal(b1-4)GlcNAc(b1-2)Man(a1-3)][GlcNAc(b1-4)]Man(b1-4)GlcNAc(b1-4)GlcNAc
# How it was run: as §1
# [20] = molecular target: Neu5Ac(a2-6)Gal(b1-4)GlcNAc(b1-3)Gal(b1-3)GlcNAc
# How it was run: as §1
# [21] = molecular target: Neu5Ac(a2-6)Gal(b1-4)GlcNAc(b1-3)Gal(b1-4)GlcNAc
# How it was run: as §1
# [22] = molecular target: Neu5Ac(a2-6)Gal(b1-4)GlcNAc(b1-3)Gal(b1-4)GlcNAc(b1-2)Man(a1-3)[Neu5Ac(a2-6)Gal(b1-4)GlcNAc(b1-3)Gal(b1-4)GlcNAc(b1-2)Man(a1-6)]GalNAc
# How it was run: as §1
# [23] = molecular target: Neu5Ac(a2-6)Gal(b1-4)GlcNAc(b1-3)Gal(b1-4)GlcNAc(b1-3)Gal(b1-4)GlcNAc
# How it was run: as §1
# [24] = molecular target: Neu5Ac(a2-6)Gal(b1-4)GlcNAc(b1-3)Gal(b1-4)GlcNAc(b1-3)Gal(b1-4)GlcNAc(b1-2)Man(a1-3)[Neu5Ac(a2-6)Gal(b1-4)GlcNAc(b1-3)Gal(b1-4)GlcNAc(b1-3)Gal(b1-4)GlcNAc(b1-2)Man(a1-6)]GalNAc
# How it was run: as §1
# [25] = molecular target: Neu5Ac(a2-6)Gal(b1-4)GlcNAc(b1-3)Gal(b1-4)GlcNAc(b1-3)GalNAc
# How it was run: as §1
# [26] = molecular target: Neu5Ac(a2-6)Gal(b1-4)GlcNAc(b1-3)Gal(b1-4)GlcNAc(b1-3)[Neu5Ac(a2-6)Gal(b1-4)GlcNAc(b1-3)Gal(b1-4)GlcNAc(b1-6)]GalNAc
# How it was run: as §1
# [27] = molecular target: Neu5Ac(a2-6)Gal(b1-4)GlcNAc(b1-3)Gal(b1-4)GlcNAc(b1-6)[Gal(b1-3)]GalNAc
# How it was run: as §1
# [28] = molecular target: Neu5Ac(a2-6)Gal(b1-4)GlcNAc(b1-3)Gal(b1-4)[Fuc(a1-3)]GlcNAc(b1-3)Gal(b1-4)[Fuc(a1-3)]GlcNAc
# How it was run: as §1
# [29] = molecular target: Neu5Ac(a2-6)Gal(b1-4)GlcNAc(b1-3)GalNAc
# How it was run: as §1
# [30] = molecular target: Neu5Ac(a2-6)Gal(b1-4)GlcNAc(b1-3)[Neu5Ac(a2-6)Gal(b1-4)GlcNAc(b1-6)]GalNAc
# How it was run: as §1
# [31] = molecular target: Neu5Ac(a2-6)Gal(b1-4)GlcNAc(b1-6)GalNAc
# How it was run: as §1
# [32] = molecular target: Neu5Ac(a2-6)Gal(b1-4)GlcNAc(b1-6)[Gal(b1-3)GlcNAc(b1-3)]Gal(b1-4)Glc
# How it was run: as §1
# [33] = molecular target: Neu5Ac(a2-6)Gal(b1-4)GlcNAc(b1-6)[Gal(b1-3)]GalNAc
# How it was run: as §1
# [34] = molecular target: Neu5Ac(a2-6)Gal(b1-4)GlcNAc6S
# How it was run: as §1
# [35] = molecular target: Neu5Ac(a2-6)GalNAc
# How it was run: as §1
binder,measurement,setting,value
rMpL (Macrolepiota procera) (protein) MSTQVSSGRTYKITNVIAGTVIDLSGEDNKSIIGYPYHSGKNQQWTFNWTGKAWTLRSASSGSYLGIEGTPAGGTRLVAVNDPFEWHIWRDEANENAFRIFVPFTNYNLDLSGYGDTTPGTPVQLWWTWEGLHQTWTIDRP,glycan array binding signal (z-score),[1],0.035
same,glycan array binding signal (z-score),[2],-0.348
same,glycan array binding signal (z-score),[3],-0.358
same,glycan array binding signal (z-score),[4],-0.296
same,glycan array binding signal (z-score),[5],-0.29
same,glycan array binding signal (z-score),[6],-0.187
same,glycan array binding signal (z-score),[7],-0.317
same,glycan array binding signal (z-score),[8],-0.34
same,glycan array binding signal (z-score),[9],-0.264
same,glycan array binding signal (z-score),[10],-0.342
same,glycan array binding signal (z-score),[11],-0.285
same,glycan array binding signal (z-score),[12],-0.168
same,glycan array binding signal (z-score),[13],-0.322
same,glycan array binding signal (z-score),[14],0.028
same,glycan array binding signal (z-score),[15],-0.332
same,glycan array binding signal (z-score),[16],-0.279
same,glycan array binding signal (z-score),[17],-0.304
same,glycan array binding signal (z-score),[18],-0.31
same,glycan array binding signal (z-score),[19],-0.314
same,glycan array binding signal (z-score),[20],0.728
same,glycan array binding signal (z-score),[21],-0.363
same,glycan array binding signal (z-score),[22],-0.05
same,glycan array binding signal (z-score),[23],-0.333
same,glycan array binding signal (z-score),[24],0.331
same,glycan array binding signal (z-score),[25],-0.334
same,glycan array binding signal (z-score),[26],0.44
same,glycan array binding signal (z-score),[27],-0.15
same,glycan array binding signal (z-score),[28],-0.344
same,glycan array binding signal (z-score),[29],-0.295
same,glycan array binding signal (z-score),[30],-0.241
same,glycan array binding signal (z-score),[31],-0.237
same,glycan array binding signal (z-score),[32],0.103
same,glycan array binding signal (z-score),[33],-0.264
same,glycan array binding signal (z-score),[34],-0.365
same,glycan array binding signal (z-score),[35],-0.37
